The supplement of paper PMC11417369
This is one part of the list.

Tested on: PfAP2-HC AP2 domain (GST-tagged)
Assay: gcPBM binding intensity (ln(normalized median fluorescence intensity)); higher = stronger DNA binding
Method in brief: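 GST-fused DNA-binding domains of P. falciparum, expressed in E. coli, were applied at about 25 μg on average for 1 h to an Agilent 4 × 180k array of primer-extended double-stranded 36-bp intergenic genomic probes and negative controls. Binding intensity is the highest Masliner-normalised natural-log median intensity across replicate spots of either probe orientation, measured with Alexa488 anti-GST antibody and a 488 nm scan.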

Row | Sequence | gcPBM binding intensity (ln)
1 | TATTTAAATGGATGCACACATGCATTAAATAAAATA [CACACA_site3433] | 9.69
2 | TGTAATGTTTACAACACACAAATTATAAATACAAAA [CACACA_site5047] | 9.79
3 | AATATAATATAATGCACACATAAACAAAAAAAAAAA [CACACA_site783] | 9.98
4 | GTTAGCATATTAAGTTGTACACAATTATTCTTCAAT [XGTACX_site8324] | 9.7
5 | TGGTATTTTGATGATAAAAGGAAATTTTTTTTATAC [XGTACX_negctrl_site111] | 9.09
6 | AACAAAGAAAATACATGTACAAAAAATATTAACGAA [XGTACX_site287] | 10
7 | TTTAATACGAATGAGGCACACACCTAGTATACATGC [CACACA_site621] | 9.88
8 | CAAAATAATATATATACACACACACCGATATATATA [CACACA_site8082] | 10.8
9 | TTTAATTTTTTTAAAACACACAAATATATATATATA [CACACA_site3898] | 9.55
10 | GTAATTAAAATATATACACACAAAGGCTATTAAATA [CACACA_site1011] | 10.1
11 | TATATAAAATATTAATGTACATATAAATATATATAT [XGTACX_site6656] | 9.43
12 | ATTTATGAAAGAAATAGTACACACATAAACATTTGT [XGTACX_site5862] | 9.93
13 | TATTGTAATATTATATATATCTATTATGTATATAAA [CACACA_negctrl_site454] | 9.36
14 | AATTATATATTAAAAAGTACAAGTTAATATAATATA [XGTACX_site2737] | 9.69
15 | ATATAAAAAAATTGCACACATAAATATATACATATA [CACACA_site1218] | 9.86
16 | GATACATAGAAACACACACACATACATATATACATA [CACACA_site3438] | 10.7
17 | TCACAAAAAGAACATTGATATTATTATAAAATCGTC [GTGCAC_negctrl_site177] | 9.57
18 | TTTATGTACAGACATATACACACCTCTATAATATAT [CACACA_site730] | 9.88
19 | TTACAAAAATTTTGTTCACACATAAAAATATGTTAC [CACACA_site5740] | 9.57

Row | Sequence | gcPBM binding intensity (ln)
20 | ATATATTTTTCAAAATGTACAAATAATTAAATACCA [XGTACX_site875] | 9.44
21 | TAATAAATTATTTTTTATTATTTTAATAACACTTCA [CACACA_negctrl_site3] | 9.61
22 | ATTAATAATCGAAAGGTGCACTTTGATTTGATAACA | 9.69
23 | TAATTAAAATTATTTATAAATTAGTATATTTCTATA [CACACA_negctrl_site663] | 9.42
24 | TTATTATTTTATCGTAGTACACCTAAATTATAAAAC [XGTACX_site5251] | 9.41
25 | TGTAGTCTGGAGAAACGTACATAGTATCTGGTAACC [XGTACX_site4939] | 9.6
26 | TATTTATTTTTTTGCACACATATTTTACATTTTAAT [CACACA_site3181] | 10.4
27 | ATAACATTCATATTCACACAAAAATATACTACATAG [CACACA_site4529] | 9.71
28 | TATATATATATATATACACACATATATATATTTATA [CACACA_site627] | 10.2
29 | ATAAAAAAAGGACACACACACATATATATATATATA [CACACA_site5662] | 10.8
30 | ATATAAAAAGTGTATCGTACATTTACTTATTTTATA [XGTACX_site6249] | 9.66
31 | ATTGAAAATTGTTGCACACATAATAATTAAATATAT [CACACA_site1857] | 9.81
32 | CACACCCACAAAAACACACACAAAGGTGTTCTTATA [CACACA_site1293] | 10
33 | AAAAAAATCACATAAAATACTTTATTTTATATTATA [GTGCAC_negctrl_site372] | 9.4
34 | TATATTTCTTATTTCTTATTTTGTCATCACCTTTTT [CACACA_negctrl_site1115] | 9.62
35 | TTACATAATATATGTACACACGCAAATACTTATAAT [CACACA_site7995] | 9.79
36 | TATAAATATGTTCTTACACACACGAATATAAATATG [CACACA_site7537] | 9.89
37 | TACTTTTTTTTTTTTTTTTTTTTTTTTTCCCTTTTT [CACACA_negctrl_site761] | 9.28
38 | CTTTTTTTCCATTAAGCATGCACATTCATATTTACT [TGCATGCA_site170] | 10

Row | Sequence | gcPBM binding intensity (ln)
39 | ATATATATATATATATGTACATATGTTAATCTGCAT [XGTACX_site1068] | 9.84
40 | TATATATATATAGGTTGTACATTTTGATGTTTACGT [XGTACX_site5503] | 9.96
41 | GTTTATTTATTATAATGTACATTAGTCTGAGGAGTT [XGTACX_site4035] | 9.64
42 | TTTTATTTATATATAGTGCATATTATTATAAAACAA | 9.37
43 | CCATTAAGACACATTGCACACGTGCACCCATAGAAA [CACACA_site4388] | 9.84
44 | TGAACACGCACAAATACACACAAAAAAAATAAATAA [CACACA_site6257] | 10.3
45 | AACAAAATAGGGAACACACACATGTCAATATATAAA [CACACA_site2596] | 10.4
46 | AAAAAAAAATTAAAAACACACATATAAATAAATATA [CACACA_site6845] | 9.8
47 | CACATACACATACAAACACACATTAGATATAAATAT [CACACA_site6854] | 10.3
48 | AAAAAAAATTAATAGGGTACATGAAAAGTGGAATAT [XGTACX_site618] | 9.87
49 | ATAGAAGAAATATGCACACATACATTGAAATGTTTT [CACACA_site321] | 9.84
50 | TTTTTATTTATTAATACACACACACCCACCCACAAA [CACACA_site7965] | 10.4
51 | AAAGAAAAAAATAATTGTACATTTATATTTAATTTA [XGTACX_site8003] | 9.47
52 | TTTTTTTTTAAATAATGTACTTTTCATTATTTAGAT [XGTACX_site1706] | 9.54
53 | TAATTTTATATATGCACACAAAATATGTTCATATAA [CACACA_site4076] | 9.64
54 | TGAAAAATGTTGATGTGTACTTATATAGTGTGTTAA [XGTACX_site2100] | 9.82
55 | TTTAACATAAATTAAACACACAATATAATACATTAA [CACACA_site1237] | 9.72
56 | TTTTTTTTTTTTTTTTGTACGTAATATATGATTAAT [XGTACX_site6876] | 9.33
57 | CATTTTATCAAAAGTGGTACAACCCTTTCAAAAAAT [XGTACX_site341] | 9.33
